{"source": "ChEMBL document CHEMBL4888484", "about": "“Replenishing the malaria drug discovery pipeline: Screening and hit evaluation of the MMV Hit Generation Library 1 (HGL1) against asexual blood stage Plasmodium falciparum ,using a nano luciferase reporter read-out” (2022)", "note": "The campaign covered roughly 150,000 compounds. About 540 (0.36%) showed an effect of 50% or more. The list shows a part of the results."}
{"test_system": "Plasmodium falciparum", "assay": "Primary screen in NF54 nanoGlo assay, in single point, at 2uM, 72h; a lower Z score goes with more inhibition", "type": "functional, Erythrocyte", "settings": "timepoint 72 hour", "units": {"% Inhibition": "%"}}
{"smiles": "CN(CC(O)C(F)(F)F)C1(CO)CCOC1", "note": "(stereo not drawn)", "% Inhibition": -2, "Z score": 0.25}
{"smiles": "CCCCc1ccc(CC(=O)NC2CCOC3(CCS(=O)(=O)C3)C2)cc1", "note": "(stereo not drawn)", "% Inhibition": -13, "Z score": 1.65}
{"smiles": "CC(C)(C)OC(=O)Nc1cccc(N)n1", "% Inhibition": 34, "Z score": -0.75}
{"smiles": "Cc1cccc(C(=O)N[C@@H](C)C(=O)NCc2ncc[nH]2)c1", "% Inhibition": -8, "Z score": 0.78}
{"smiles": "Cc1cc2[nH]c(=O)[nH]c2c(NC(=O)c2csc(CN(C)C)n2)c1C", "% Inhibition": -14, "Z score": 2.47}
{"smiles": "O=C1Nc2c(Cl)cccc2C(=O)N2C[C@H](O)C[C@@H]12", "% Inhibition": 20, "Z score": -2.57}
{"smiles": "CCC(=O)Nc1c(S(=O)(=O)c2ccccc2)c2nc3ccccc3nc2n1[C@@H](C)c1ccccc1", "% Inhibition": -14, "Z score": 1.29}
{"smiles": "O=C(Nc1cccc2[nH]ncc12)c1ccccc1[C@H]1CCNC1", "% Inhibition": -4, "Z score": 0.78}
{"smiles": "Cc1ccc([C@H](CN2CCOCC2)NC(=O)C2CCN(S(=O)(=O)c3ccc(C)cc3C)CC2)cc1", "% Inhibition": -2, "Z score": 0.33}
{"smiles": "Cc1ccnc(N[C@@H]2C=C[C@H](CO)C2)n1", "% Inhibition": -10, "Z score": 0.99}
{"smiles": "CCN1CCn2c(nc3cc(C(=O)NCc4ccc(OC)cc4)ccc32)C1=O", "% Inhibition": -1, "Z score": 0.07}
{"smiles": "CCC(C)NC(=O)N1CCCC(CCO)C1", "note": "(stereo not drawn)", "% Inhibition": -8, "Z score": 1.04}
{"smiles": "CC1CCC(CNC(=O)OC(C)(C)C)N(Cc2ncccn2)C1C", "note": "(stereo not drawn)", "% Inhibition": -7, "Z score": 0.73}
{"smiles": "O=C(c1ccccc1)N1c2ccccc2NC(c2c[nH]c3ccccc23)C1c1c[nH]c2ccccc12", "note": "(stereo not drawn)", "% Inhibition": -7, "Z score": 0.9}
{"smiles": "CCn1ccc(C(=O)N2CC(n3ccnc3)C2)n1", "% Inhibition": -15, "Z score": 1.83}
{"smiles": "O=C1N/C(=N\\O)c2cc(Cl)cc(Cl)c21", "% Inhibition": -16, "Z score": 2.91}
{"smiles": "O=C(CN1C(=O)NC2(CCCCCCC2)C1=O)Nc1ccc(Cl)cc1", "% Inhibition": -6, "Z score": 1.03}
{"smiles": "CCOc1ccc(NC(=O)Cc2c(C)nc3nc(-c4cccnc4)nn3c2C)cc1", "% Inhibition": 1, "Z score": -0.11}
{"smiles": "Cc1nc(C)c([C@H](C)NC(=O)C(C)C)s1", "% Inhibition": 10, "Z score": -1.86}
{"smiles": "Cc1cc(=O)n(CC(=O)N2CCOCC2)c2c(C)cccc12", "% Inhibition": -4, "Z score": 0.47}
{"smiles": "O=C(CO[C@H](c1ccccc1)C(F)(F)F)N1CCC2(CCO2)CC1", "% Inhibition": -5, "Z score": 0.82}
{"smiles": "CCOC(=O)COc1ccc(C#N)cc1Cl", "% Inhibition": 5, "Z score": -1.04}
{"smiles": "C[C@@H](CNC(=O)OC(C)(C)C)N(C)Cc1cn2ccccc2n1", "% Inhibition": -13, "Z score": 1.99}
{"smiles": "Cc1ccc([C@H](CNC(=O)COc2cc(C)cc(C)c2)N2CCOCC2)cc1", "% Inhibition": -9, "Z score": 1.79}
